In PubChem BioAssay AID1645882 (National Center for Advancing Translational Sciences (NCATS), 2021):
In all, about 16,000 compounds went through this assay and about 120 (0.75%) were called active. Not shown: some 4% with an inconclusive outcome. Calls follow the shape of the dose curve; as a rule, active = well fitted inhibition curve with a large enough effect; inconclusive = small, poorly fitted or top-dose-only effect; inactive = no such curve, though single readings can be large or run the other way. This is one part of the list.

Molecular target: Rap guanine nucleotide exchange factor 3 (Homo sapiens) (UniProt O95398)
Test: Validation qHTS for antagonist of cAMP-regulated guanine nucleotide exchange factor 3 (EPAC1);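 also: plate controls were DMSO for no effect and ATA control for full effect; nearly all actives have a fitted effect of over 75% in size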
Details: EPAC1 Rap1B-BODIPY-GDP exchange, fluorescence; series mostly up to 150 µM; activity change, negative = inhibition: at the top concentration
In short: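 Nucleotide exchange followed as fluorescence loss when BODIPY-GDP leaves Rap1B (480 nm excitation, 540 nm emission), read at 5 min intervals over 30 min. Reaction: 100 nM EPAC1, 250 nM RAP1B-BODIPY-GDP, 50 uM GDP; ATA and DMSO define normalization.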

Sequence of UniProt O95398 (O95398 whole entry, looked up): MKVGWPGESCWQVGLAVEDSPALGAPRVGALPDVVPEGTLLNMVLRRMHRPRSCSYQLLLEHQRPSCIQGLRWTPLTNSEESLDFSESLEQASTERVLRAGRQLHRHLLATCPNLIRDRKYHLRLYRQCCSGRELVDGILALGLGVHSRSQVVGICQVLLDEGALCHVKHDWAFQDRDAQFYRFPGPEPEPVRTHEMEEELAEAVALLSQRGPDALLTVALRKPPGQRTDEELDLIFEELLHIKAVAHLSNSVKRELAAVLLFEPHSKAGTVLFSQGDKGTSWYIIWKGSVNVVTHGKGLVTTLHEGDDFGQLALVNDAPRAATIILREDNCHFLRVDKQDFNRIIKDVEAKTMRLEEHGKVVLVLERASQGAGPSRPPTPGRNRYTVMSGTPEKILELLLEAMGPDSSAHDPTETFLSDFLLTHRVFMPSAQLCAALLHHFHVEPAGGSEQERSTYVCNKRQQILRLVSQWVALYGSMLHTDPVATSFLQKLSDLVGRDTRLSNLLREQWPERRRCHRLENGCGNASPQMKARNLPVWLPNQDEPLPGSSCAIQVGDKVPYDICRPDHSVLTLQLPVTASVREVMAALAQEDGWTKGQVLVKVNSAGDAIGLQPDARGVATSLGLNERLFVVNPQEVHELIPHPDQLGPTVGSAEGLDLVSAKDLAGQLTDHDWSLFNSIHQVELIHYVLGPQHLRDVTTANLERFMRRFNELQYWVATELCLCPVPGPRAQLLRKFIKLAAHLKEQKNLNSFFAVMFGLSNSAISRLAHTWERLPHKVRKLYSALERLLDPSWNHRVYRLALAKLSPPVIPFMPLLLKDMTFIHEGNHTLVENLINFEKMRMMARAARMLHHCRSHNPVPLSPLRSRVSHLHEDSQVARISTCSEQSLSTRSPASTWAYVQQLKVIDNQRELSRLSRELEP

Activity change, negative = inhibition, inactive:
N=c1ccn2c(n1)OC1C(O)C(CO)OC12 (stereo not given)
CCN1CCCC1CNC(=O)c1cnn(-c2nccc(-c3cc4ccccc4o3)n2)c1C (stereo not given) 4.99%
O=C(c1cc(C(F)(F)F)cc(C(F)(F)F)c1)N1CCC2(CC1)CN(Cc1ccccc1)C2 6.12%
OCC(S)CS (stereo not given) 8.06%
Cc1noc(C)c1-c1cc(NCc2cccs2)ncn1 5.91%
[Li+] -4.57% [at 75.8 µM]
CC(C)=CC1C(C(=O)O)C1(C)C (stereo not given) 6.88%
O=c1c(CCc2ccccc2)nc2cncnc2n1Cc1ccc(F)cc1 -7.25%
CC(C)(C)C(=O)OCOC(=O)[C@@H]1N2C(=O)[C@@H](N=CN3CCCCCC3)[C@H]2SC1(C)C 9.61% [at 75.8 µM]
COc1ccc(CN2CCC(=O)N([C@H](CO)CC(C)C)CC2)cc1OC 11.6%
CCOC(=O)C[C@H]1c2ccccc2S(=O)(=O)N1c1cccc(OC)c1 0.554%
CC(CCC(=O)O)C1CCC2C3C(=O)CC4CC(=O)CC[C@@]4(C)C3CC(=O)[C@]12C (stereo not given in full) -11.2%
CN(Cc1ccco1)c1cc(-c2ccoc2)ncn1 19.7%
Cc1noc(C)c1-c1nc(N2CCNCC2)c2ccccc2n1 5.34%
Cn1cccc1C(=O)N1CCC2(CCCN(Cc3nccs3)C2)CC1 8.65%
COCC(=O)Nc1cc(C(=O)N2CCOc3ccccc3C2)cc2nc(-c3cccnc3)n(C)c12 14.3%
Cc1cnc(CNc2cc(-c3ccccc3CN(C)C)ncn2)cn1 1.99%
CCCCCCCCCCOCC(O)CN (stereo not given) 26.6%
Cc1cc(=O)c(C(=O)NCCc2ccccn2)c2n1-c1ccccc1SC(c1cccs1)C2 (stereo not given) 14.7%
C=CC[C@H](c1ccc(F)cc1)N(CC(C)C)S(=O)(=O)C=C -27.3%
COc1ccc2cc3[n+](cc2c1OC)CCc1cc2c(cc1-3)OCO2
COCc1ccc(CN2CCOc3ccc(C4=Cc5ccccc5C4)cc3C2)o1 -6.8%
COCCn1c(=O)c(-c2cccc(C#N)c2)nc2cnc(Oc3ccc(OC)cc3)nc21 -10.4%
Nc1ncnc2c1ncn2[C@H]1CC[C@@H](CO)O1
O=C(C[n+]1cc(Br)cc2ccccc21)c1ccc(Cl)cc1 7.87%
CC[C@@H]1Cc2cc(O)ccc2C2=C1c1ccc(O)cc1C[C@H]2CC -6.11% [at 75.8 µM]
O=C(NCC1(N2CCCCC2)CCCC1)c1cnn(-c2nccc(-c3cccs3)n2)c1C1CC1 6.43%
C[C@@H]1NC(=O)[C@@H](N)CNC(=O)[C@H](C2CCNC(N)=N2)NC(=O)/C(=C/NC(N)=O)NC(=O)[C@H](CNC(=O)C[C@@H](N)CCCN)NC1=O (stereo not given in full)
CCn1cc(CN2CCOc3ccc(C(O)C4CCCCC4)cc3C2)c(C)n1 (stereo not given) 13.8%
COC(=O)N1CCC2(CCN(C(=O)Nc3ccc(OC)cc3)CC2)CC1 19.7%
